# Reference: PMC4336329 (PLoS ONE, 2015)
# The campaign covered roughly 310,000 compounds. About 2,200 (0.71%) showed an effect of 50% or more. Effects have a minus sign here. This is one part of the list.
# Biological target: human ether-à-go-go-related gene (hERG) potassium channel (human, UniProt Q12809)
# Experiment: primary screen, population patch clamp on CHO cells stably expressing hERG
# human ether-à-go-go-related gene (hERG) potassium channel, sequence (Q12809 whole entry, looked up): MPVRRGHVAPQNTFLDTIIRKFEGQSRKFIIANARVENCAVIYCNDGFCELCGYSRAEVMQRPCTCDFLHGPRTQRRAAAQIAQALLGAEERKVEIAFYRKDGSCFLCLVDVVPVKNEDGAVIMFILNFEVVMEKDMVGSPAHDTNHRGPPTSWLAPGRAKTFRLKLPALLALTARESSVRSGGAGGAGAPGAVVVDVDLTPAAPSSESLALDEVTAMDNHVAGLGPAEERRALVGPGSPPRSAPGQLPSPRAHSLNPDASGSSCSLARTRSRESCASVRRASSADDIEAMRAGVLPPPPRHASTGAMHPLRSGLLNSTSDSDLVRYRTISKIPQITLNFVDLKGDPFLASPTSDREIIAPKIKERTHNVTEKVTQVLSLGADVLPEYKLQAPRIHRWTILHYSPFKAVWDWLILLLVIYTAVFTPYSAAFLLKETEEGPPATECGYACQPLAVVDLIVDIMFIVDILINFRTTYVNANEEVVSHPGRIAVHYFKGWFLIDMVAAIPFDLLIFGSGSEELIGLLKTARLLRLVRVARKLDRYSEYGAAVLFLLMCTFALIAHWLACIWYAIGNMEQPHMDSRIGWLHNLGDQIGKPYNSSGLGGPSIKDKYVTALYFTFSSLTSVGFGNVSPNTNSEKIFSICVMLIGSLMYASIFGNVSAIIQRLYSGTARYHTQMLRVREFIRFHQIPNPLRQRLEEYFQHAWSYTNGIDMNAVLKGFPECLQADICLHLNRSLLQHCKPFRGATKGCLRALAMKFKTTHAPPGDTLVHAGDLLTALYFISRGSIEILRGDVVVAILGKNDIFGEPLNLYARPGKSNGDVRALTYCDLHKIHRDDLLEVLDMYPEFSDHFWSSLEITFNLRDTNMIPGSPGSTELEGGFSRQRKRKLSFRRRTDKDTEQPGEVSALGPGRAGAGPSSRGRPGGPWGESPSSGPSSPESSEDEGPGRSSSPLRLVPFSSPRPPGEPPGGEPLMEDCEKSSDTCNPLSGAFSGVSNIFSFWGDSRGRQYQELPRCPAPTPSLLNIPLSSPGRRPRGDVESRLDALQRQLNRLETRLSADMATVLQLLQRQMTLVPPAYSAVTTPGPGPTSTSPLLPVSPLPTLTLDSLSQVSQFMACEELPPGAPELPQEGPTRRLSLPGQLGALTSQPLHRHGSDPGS
row,SMILES,"hERG current change (%, negative = inhibition) at 1uM"
1,O=C(COC(=O)Cc1ccccc1F)Nc1cc(S(=O)(=O)N2CCOCC2)ccc1N1CCCC1,-0.931%
2,Nc1ccccc1OCCOCCOCCOc1ccccc1N,5.42%
3,CCC(C)NC(=O)c1ccc2nc(Cc3ccc(OC)cc3)oc2c1 (centres unmarked),16.8%
4,Oc1ccc2ccccc2c1C=Nc1cc(C(F)(F)F)ccc1N1CCCC1,8.77%
5,O=C1c2ccccc2C(=O)N1CC1CCCO1 (centres unmarked),-0.0299%
6,Nc1c(C(=O)O)cnn1-c1ccccc1,14.5%
7,CCCCn1c(SCC(=O)OCC)nnc1-c1ccoc1C,8.45%
8,NCCc1ccc(O)cc1,2.68%
9,O=C(NCCN1CCOCC1)c1cc2ccccc2[nH]1,8.3%
10,COc1cccc(C(=O)Nc2ccc(S(=O)(=O)Nc3onc(C)c3C)cc2)c1,21%
11,COc1cccc(-c2nn(-c3ccccc3)cc2/C=C(\C#N)C(=O)NCCCn2ccnc2)c1,4.03%
12,CCOc1ccc(NC(=O)C2CC(=O)N(Cc3ccco3)C2)cc1 (centres unmarked),13.4%
13,O=C(CN1C(=O)CCC1=O)NC(=O)NC1CCCC1,14.9%
14,CCN(CC(=O)Nc1ccccc1C(F)(F)F)C(=O)/C=C/c1ccc(Cl)c([N+](=O)[O-])c1,19.9%
15,CC1(C)Cc2ccccc2C(N/N=C/c2cccc(F)c2)=N1.Cl,2.6%
16,CC(=O)Nc1ccc(S(=O)(=O)N2CCCCC2c2cccnc2)cc1 (centres unmarked),12%
17,CC/C(=C\C(=O)c1ccncc1)Nc1ccc(Br)cc1,-2.23%
18,Cc1ccc(C)c(NC(=S)Nc2cccc3cnccc23)c1,8.56%
19,Cc1ccc(C)c(OCCC(=O)OCC(=O)NC(=O)NCc2ccccc2)c1,3.7%
20,COc1cc2nc(NC(=O)c3ccc(Cl)cc3)[nH]c(=O)c2cc1OC,12.3%
21,Cc1ccc(N2CCN(C(=O)c3cc(COc4c(C)cccc4C)on3)CC2)c(C)c1,14.1%
22,CC(=O)OCc1nc2ccccc2s1,6.71%
23,CC1(C)CC(NC(=O)c2ccc3c(c2)OCO3)CC(C)(C)N1,11.9%

row,SMILES,"hERG current change (%, negative = inhibition) at 1uM"
1,CN1C(=O)N(C)C(=O)C2(Cc3cc(NC(=O)c4ccccc4Cl)ccc3N3CCCC32)C1=O (centres unmarked),12.8%
2,CC(=O)C1=C(O)C(=O)N(CCc2c[nH]c3ccccc23)C1c1ccccc1 (centres unmarked),9.09%
3,O=C(N/N=C/c1c(O)n(Cc2ccccc2)c(=O)c2ccccc12)c1cccnc1,16.1%
4,CCCCCOc1ccc(N2C(=O)C3C4C=CC(C3C2=O)N(C)C4=O)cc1 (centres unmarked),-11.5%
5,O=C(O)Cc1sc(-c2ccccc2Cl)nc1-c1ccccc1,4.91%
6,Cc1cc2ccccc2c(=O)n1CC(=O)NCC(=O)N1CCN(c2ccccc2F)CC1,9.66%
7,COC(=O)c1cc(S(=O)(=O)Nc2cc(OC)cc(OC)c2)cn1C,6.29%
8,CC(n1cnnn1)C12CC3CC(CC(C3)C1)C2 (centres unmarked),-0.398%
9,Nc1nc(SCC(=O)c2ccc([N+](=O)[O-])cc2)n[nH]1,1.72%
10,CN(C(=O)COC(=O)C(C)(C)Oc1ccc(Cl)cc1)c1c(N)n(Cc2ccccc2)c(=O)[nH]c1=O,16.5%
11,COc1cccc(CNCCc2c[nH]c3ccccc23)c1OCc1ccccc1.Cl,-1.56%
12,CN(C)/C=C/C(=O)c1c(F)cccc1F,6.68%
13,CC(C)c1nc(C#N)c(N2CCOCC2)o1,10.4%
14,Cc1ccc(C2(c3ccccc3)NC(=O)N(CC(=O)NC3CCS(=O)(=O)C3)C2=O)cc1C (centres unmarked),9.38%
15,CCOC(=O)Cn1nnnc1CN(Cc1ccc(OC)cc1)Cc1cc2cc(CC)ccc2[nH]c1=O,-0.139%
16,N#Cc1c(-c2cccc(Cl)c2)[nH]c(=S)[nH]c1=O,31.3%
17,CCOC(=O)c1nc(-c2ccccc2)oc1N1CCOCC1,4.72%
18,N#C/C(=C\Nc1ccc(Cl)cn1)S(=O)(=O)c1ccccc1,7.94%
19,CC(C)n1cc(NC(=O)c2cc(-c3ccccc3)on2)cn1,-14.5%
20,COC(=O)c1ccccc1NC(=O)c1ccnn1C,6.82%
21,Cc1nnc(SCC(=O)NCCN2C(=O)CSC2=O)n1-c1ccccc1,4.74%
22,CCOC(=O)c1c(N)sc(=S)c2c1CCC2,4.86%
23,COc1ccc(NCc2ccc(OC)c(OC)c2)cc1,4.25%

row,SMILES,"hERG current change (%, negative = inhibition) at 1uM"
1,CC(=O)c1ccc(NC(=O)Cn2cnc(S(=O)(=O)N3CCOCC3)c2)cc1,13.6%
2,COc1cc2c(cc1OC)CN(CC(O)c1ccccc1)CC2 (centres unmarked),12.6%
3,S=c1[nH]nc(C2CC2)n1Cc1ccco1,-2.78%
4,COc1cc(NC(=O)c2cc(C3CC3)on2)c(OC)cc1Cl,3.48%
5,COc1ccc2oc(C(=O)OCC(=O)c3ccc4c(c3)OCCO4)c(C)c2c1,15.5%
6,COc1ccc(N2CCN(C(=O)c3ccc(CNS(=O)(=O)c4ccc(C)cc4)cc3)CC2)cc1,12.9%
7,COc1ccc(CCN(C)C(=O)CNC(=O)c2ccccc2F)cc1OC,1.21%
8,COC(=O)c1c(NC(=O)C2COc3ccccc3O2)sc2c1CCN(C(C)=O)C2 (centres unmarked),-5.47%
9,O=[N+]([O-])c1ccc(-c2n(-c3ccccn3)c3ccccc3[n+]2-c2ccccn2)cc1.[I-],10.6%
10,CCOC(=O)C(CCCCP(=O)(c1ccccc1)c1ccccc1)(NC(C)=O)C(=O)OCC,8.58%
11,Cc1cc(C)c2c(c1)N[C@H](c1cccs1)[C@@H]1CCO[C@H]21,3.83%
12,Cn1nc(C(=O)NCc2ccccc2)c2c1-c1ccccc1S(=O)(=O)C2,8.09%
13,CCc1ccc(N(CC(=O)NCc2ccc(OC)cc2)C(=O)CCC(=O)Nc2ccccn2)cc1,-7.83%
14,CCC(C)N1C(=O)N(c2cccc(Cl)c2)C(C)(O)CC1(C)C (centres unmarked),12.3%
15,O=C(O)c1cccc(C(=O)Nc2cccc(NC(=O)C3CCCO3)c2)c1 (centres unmarked),21%
16,O=C(CC1OC(=O)c2ccccc21)Nc1cc(S(=O)(=O)N2CCOCC2)ccc1OCC(F)(F)F (centres unmarked),-0.757%
17,COc1cc2ccccc2cc1C(=O)Nc1ccc(O)cc1,-5.29%
18,O=C(N/C(=C/c1ccc2c(c1)OCO2)C(=O)N1CCOCC1)c1cccs1,9.57%
19,CN(Cc1ccccc1)C(=O)CCCn1c(=O)c2cccn2c2cccnc21,-3.91%
20,O=C1CCC/C1=C\Nc1ccc(Cl)c([N+](=O)[O-])c1,14.4%
21,O=C(Cn1cnc2scc(-c3ccc(F)cc3)c2c1=O)N1CCOCC1,3.83%
22,CC(C(=O)Nc1ccc(Br)cc1C(=O)c1ccccc1)N1CCOCC1 (centres unmarked),-10.9%
23,O=C(c1ccccc1F)N(Cc1ccccc1)C1CCS(=O)(=O)C1 (centres unmarked),8.11%

row,SMILES,"hERG current change (%, negative = inhibition) at 1uM"
1,Cc1ccc(C(C)(C)C)cc1S(=O)(=O)NC(=O)c1ccccc1,20.3%
2,COc1cccc(-c2cc(C(=O)Nc3cc(C)nn3-c3ccccc3)no2)c1,14.4%
3,COc1ccc(CC(=O)N/N=C/c2cccn2-c2ccc([N+](=O)[O-])cc2)cc1OC,18.1%
4,Cc1cccc(NC(=O)c2cc(=O)c3ccccc3o2)c1,17.2%
5,CC(=O)C1=C(O)C(=O)N(Cc2cccnc2)C1c1ccc(O)cc1 (centres unmarked),7.48%
6,O=C(Nc1nc2ccccc2s1)c1cc(-c2ccco2)nc2ccccc12,7.55%
7,Cc1[nH]c(=S)[nH]c(=O)c1Cc1ccc(OCC(C)C)cc1,10%
8,O=C(Cn1ncc2c3ccccc3n(Cc3ccccc3)c2c1=O)NCc1ccco1,8.83%
9,Cl.O=C(Oc1cccc2cccnc12)c1cccs1,8.98%
10,Cc1cccc(CSc2nc3c(c(=O)[nH]2)CCCC3)c1,3.71%
11,CCn1cc(C(=O)NCCCOC(C)C)c(=O)c2cc(S(=O)(=O)N3CCOCC3)ccc21,15.7%
12,CCN(CC)S(=O)(=O)c1ccc(Cl)c(NC(=O)COc2ccc(OC)cc2)c1,13.8%
13,Cc1cc([N+](=O)[O-])nn1Cc1noc(C(=O)NCCCn2ccnc2)n1,12.5%
14,COc1cccc(OC)c1C(=O)NC(=S)Nc1ccc(S(=O)(=O)Nc2nccs2)cc1,13.3%
15,COCCN(CCOC)Cc1c(O)ccc2c1O/C(=C\c1ccc(C)o1)C2=O,22.1%
16,C#CC1(OC(=O)c2ccccc2)CC(C)N(C)CC1C.Cl (centres unmarked),9.22%
17,Cc1ccc(C(C)NC(=O)c2cccnc2)cc1 (centres unmarked),7.26%
18,COCOc1ccc(C=O)c(OCOC)c1,15.1%
19,Cc1ccc(SCCCCN2C(=O)NC(C)(C)C2=O)cc1,9.43%
20,COc1cc2c(C(=O)NCc3ccc4c(c3)OCO4)cn(CC(C)C)c(=O)c2cc1OC,10.6%
